About 2,200 (0.71%) of roughly 310,000 compounds showed an effect of 50% or more. The effect is printed as a negative number. This is one part of the list.
Target: human ether-à-go-go-related gene (hERG) potassium channel (human, UniProt Q12809)
Assay: primary screen, population patch clamp on CHO cells stably expressing hERG

Sequence of human ether-à-go-go-related gene (hERG) potassium channel (Q12809 whole entry, looked up): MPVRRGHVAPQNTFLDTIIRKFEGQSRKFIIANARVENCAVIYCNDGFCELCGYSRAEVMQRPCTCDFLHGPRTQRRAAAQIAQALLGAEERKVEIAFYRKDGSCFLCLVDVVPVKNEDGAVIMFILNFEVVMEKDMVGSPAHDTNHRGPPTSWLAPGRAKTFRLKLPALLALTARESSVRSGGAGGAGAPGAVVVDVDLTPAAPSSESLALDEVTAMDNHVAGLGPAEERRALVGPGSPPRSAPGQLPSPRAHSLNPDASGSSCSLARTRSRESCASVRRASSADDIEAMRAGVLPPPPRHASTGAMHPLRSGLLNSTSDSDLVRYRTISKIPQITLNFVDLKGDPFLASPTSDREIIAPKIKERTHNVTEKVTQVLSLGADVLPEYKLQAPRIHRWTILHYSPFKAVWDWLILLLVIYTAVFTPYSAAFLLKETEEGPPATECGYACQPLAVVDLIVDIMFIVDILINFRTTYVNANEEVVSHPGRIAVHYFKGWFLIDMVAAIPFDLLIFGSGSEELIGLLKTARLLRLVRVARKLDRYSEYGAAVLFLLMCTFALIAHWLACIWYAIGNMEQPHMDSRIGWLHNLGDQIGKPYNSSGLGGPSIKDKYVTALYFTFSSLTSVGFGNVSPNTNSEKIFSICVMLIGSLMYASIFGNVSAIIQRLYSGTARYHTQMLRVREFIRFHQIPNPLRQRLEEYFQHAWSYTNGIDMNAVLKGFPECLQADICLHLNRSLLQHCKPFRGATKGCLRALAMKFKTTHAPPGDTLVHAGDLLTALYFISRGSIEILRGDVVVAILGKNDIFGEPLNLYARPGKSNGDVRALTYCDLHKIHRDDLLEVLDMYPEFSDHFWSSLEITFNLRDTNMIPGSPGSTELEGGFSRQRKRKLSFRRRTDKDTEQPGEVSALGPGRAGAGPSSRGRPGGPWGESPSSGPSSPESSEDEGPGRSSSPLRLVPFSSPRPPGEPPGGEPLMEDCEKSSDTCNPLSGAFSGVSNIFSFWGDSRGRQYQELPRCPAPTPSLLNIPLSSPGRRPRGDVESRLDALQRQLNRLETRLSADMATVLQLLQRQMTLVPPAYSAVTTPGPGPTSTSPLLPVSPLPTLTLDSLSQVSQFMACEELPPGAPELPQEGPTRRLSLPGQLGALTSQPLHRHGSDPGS

Going from `Cc1ccc(C)c(S(=O)(=O)N2CCN(C(=O)c3ccccc3Cc3ccccc3)CC2)c1` to `COc1cccc(-c2cc(C(=O)N3CCN(c4ncccn4)CC3)c3ccccc3n2)c1`, the “hERG current change (%, negative = inhibition) at 1uM” value rises from 5.9% to 13.5%.

Going from `O=C1NC2=C(C(=O)OC2)C(c2ccc(OC(F)(F)F)cc2)N1` (stereo not drawn) to `COc1ccc(CCN(C(=O)c2cccc(F)c2)C2CC(=O)N(c3ccccc3)C2=O)cc1` (stereo not drawn), the “hERG current change (%, negative = inhibition) at 1uM” value falls from 9.09% to 0.224%.

Compared with `CCCNC(=O)c1c(CSc2ccccc2)noc1C(=O)NCc1ccccc1`, `C=CCNC(=O)c1cnc(-c2ccccc2)nc1-c1ccccc1` is higher in “hERG current change (%, negative = inhibition) at 1uM” value: 4.19% for the first, 17.4% for the second.

Compared with `NS(=O)(=O)c1ccc(NC(=S)NC(=O)/C=C/c2ccco2)cc1`, `O=C(O)c1ccc(S(=O)(=O)N2CCc3ccccc3C2)cc1` is higher in “hERG current change (%, negative = inhibition) at 1uM” value: 14.3% for the first, 15.1% for the second.

First: CN(C(=O)COC(=O)/C=C/c1ccc(Cl)c(Cl)c1)c1c(N)n(Cc2ccccc2)c(=O)[nH]c1=O
Second: Cc1cc(SCC(=O)c2cc3ccccc3o2)nc2ccccc12
The “hERG current change (%, negative = inhibition) at 1uM” value of the first is higher: 19.7% for the first, 16.3% for the second.

Going from `O=S(=O)(c1ccc(F)c(F)c1)N1CCN(c2ncccn2)CC1` to `COC(=O)CCN1CCN(S(=O)(=O)c2ccc3c(c2)OCCO3)CC1`, the “hERG current change (%, negative = inhibition) at 1uM” value rises from 9.41% to 13.4%.

Compared with `COc1cccc(C(=O)CN2C(=O)C(C)(C)Oc3ccc(C(=O)N4CCOCC4)cc32)c1`, `O=C(Cc1ccc(S(=O)(=O)N2CCOCC2)s1)Nc1ccccc1Br` is lower in “hERG current change (%, negative = inhibition) at 1uM” value: 17.1% for the first, 14.9% for the second.

Compared with `Cc1cccc(NC(=O)c2cccc(NC(=O)Cc3cccs3)c2)c1`, `Cc1ccc(NC(=O)CCC(=O)c2cccs2)c(O)c1` is higher in “hERG current change (%, negative = inhibition) at 1uM” value: 7.98% for the first, 12.7% for the second.

First: Fc1ccc2[nH]c3c(N4CCc5ccccc5C4)ncnc3c2c1
Second: Cc1cccc2c(C(=O)Nn3cnnc3)cc(-c3ccccc3Cl)nc12
The “hERG current change (%, negative = inhibition) at 1uM” value of the first is lower: 14.2% for the first, 14.3% for the second.

Going from `CC1(C)OC(=O)N(CCc2ccccc2)C1(C)O` (stereo not drawn) to `CC1(C)CC(=O)/C(=C(\O)c2ccccc2)C(=NCCc2ccccc2)C1`, the “hERG current change (%, negative = inhibition) at 1uM” value rises from -4.43% to 18.2%.

Going from `O=C(NCc1ccco1)c1cc2nc(-c3ccc4c(c3)OCO4)cc(C(F)(F)F)n2n1` to `O=C(COC(=O)c1ccco1)NCc1ccco1`, the “hERG current change (%, negative = inhibition) at 1uM” value falls from 10.9% to 8.77%.

Compared with `COc1cc(/C=N/Nc2nc(N3CCCC3)nc(N3CCCC3)n2)ccc1O`, `CCOc1ccc(/C=N/N(C)c2ccccc2)cc1OC` is higher in “hERG current change (%, negative = inhibition) at 1uM” value: -4.08% for the first, 11.6% for the second.

Compared with `c1ccc2c(COn3nnc4ccccc43)cccc2c1`, `Nc1ccc(CNC(=O)OCC2c3ccccc3-c3ccccc32)cc1` is higher in “hERG current change (%, negative = inhibition) at 1uM” value: -7.25% for the first, 5.26% for the second.

Compared with `C=CCN(c1ccccc1)S(=O)(=O)c1cccc(C(=O)N(CC)CC(=O)Nc2c(F)cccc2F)c1`, `O=C(NCc1ccccc1F)C1CCN(C(=O)Nc2ccc(F)cc2)CC1` is lower in “hERG current change (%, negative = inhibition) at 1uM” value: 12.1% for the first, 11.8% for the second.

First: CC(C)c1ccc2oc(-c3cc(N)ccc3O)nc2c1
Second: Cc1cccc(C)c1Nc1nc2ccccc2o1
The “hERG current change (%, negative = inhibition) at 1uM” value of the first is higher: 10.7% for the first, -2.32% for the second.

First: CN1CC(=O)N=C1N.Cl
Second: CC(C)CCOC(=O)C(C)Sc1n[nH]c(=O)[nH]c1=O (stereo not drawn)
The “hERG current change (%, negative = inhibition) at 1uM” value of the first is lower: -0.973% for the first, -0.316% for the second.

Going from `CCC(C(=O)N1CC2(C)CC1CC(C)(C)C2)N1C(=O)c2ccccc2C1=O` (stereo not drawn) to `CSc1ccccc1C(=O)Nc1cccc([N+](=O)[O-])c1C`, the “hERG current change (%, negative = inhibition) at 1uM” value rises from -2.42% to 6.15%.

First: COc1ccc(NC(=O)Nc2ccc(F)cc2F)c(C)c1
Second: COC(=O)c1sc(NC(=O)c2c(F)cccc2F)c(C#N)c1C
The “hERG current change (%, negative = inhibition) at 1uM” value of the first is higher: 9.23% for the first, 8.62% for the second.

Going from `COc1ccc(CNCCC2(O)CC(C)N(C)CC2C)cc1OC.Cl` (stereo not drawn) to `CCCOC(=O)NC(CC)COC(=O)Nc1cccc(C)c1C` (stereo not drawn), the “hERG current change (%, negative = inhibition) at 1uM” value falls from 5.27% to -0.198%.

First: CN(C)/N=C1\CCS(=O)(=O)c2sccc21
Second: CC(C)CC(OC(=O)c1ccco1)C(=O)NC1CCCCC1 (stereo not drawn)
The “hERG current change (%, negative = inhibition) at 1uM” value of the first is lower: 4.8% for the first, 10.2% for the second.

Compared with `COc1ccccc1-c1cn(-c2ccccc2)c(=S)[nH]1`, `Cc1ccc(-c2nn(-c3ccccc3)cc2CO)cc1` is lower in “hERG current change (%, negative = inhibition) at 1uM” value: 9.44% for the first, -0.445% for the second.

Going from `COc1ccc(S(=O)(=O)N2CCCOC2CNC(=O)C(=O)NCc2ccccn2)cc1` (stereo not drawn) to `O=C(O)c1ccc(CSCc2c(F)cccc2Cl)o1`, the “hERG current change (%, negative = inhibition) at 1uM” value falls from 5.91% to -5.49%.

In the case of `CCOc1cccc(C(c2c(C)n(C)n(-c3ccccc3)c2=O)c2c(C)n(C)n(-c3ccccc3)c2=O)c1OC`, the “hERG current change (%, negative = inhibition) at 1uM” value is reported as 12%.

— PMC4336329 (PLoS ONE, 2015)
